The results in this text go back to PubChem BioAssay AID488969 (Vanderbilt High Throughput Screening Facility, 2010).

Over roughly 110,000 compounds, “z-score” has its median near -0.1; the highest 2% begin near 2. Some of the results follow. Active and inactive are the calls of the source.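 The calls were made as follows: active = z-score in the third read window above 3 or below -3; inactive = the rest.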

The assay concerns the target Metabotropic glutamate receptor 8 (Rattus norvegicus) (UniProt P70579). Put plainly: rat mGluR8 modulators via GIRK flux, primary screen, cell-based, thallium flux, HTS (AID 488969). Particulars: HEK293 rat mGluR8, GIRK (G protein-gated inwardly rectifying potassium channel) thallium flux, FluoZin2; at 10 µM; stronger effect = higher value; submaximal glutamate (EC20) added with thallium.
UniProt P70579, sequence (P70579 whole entry, looked up): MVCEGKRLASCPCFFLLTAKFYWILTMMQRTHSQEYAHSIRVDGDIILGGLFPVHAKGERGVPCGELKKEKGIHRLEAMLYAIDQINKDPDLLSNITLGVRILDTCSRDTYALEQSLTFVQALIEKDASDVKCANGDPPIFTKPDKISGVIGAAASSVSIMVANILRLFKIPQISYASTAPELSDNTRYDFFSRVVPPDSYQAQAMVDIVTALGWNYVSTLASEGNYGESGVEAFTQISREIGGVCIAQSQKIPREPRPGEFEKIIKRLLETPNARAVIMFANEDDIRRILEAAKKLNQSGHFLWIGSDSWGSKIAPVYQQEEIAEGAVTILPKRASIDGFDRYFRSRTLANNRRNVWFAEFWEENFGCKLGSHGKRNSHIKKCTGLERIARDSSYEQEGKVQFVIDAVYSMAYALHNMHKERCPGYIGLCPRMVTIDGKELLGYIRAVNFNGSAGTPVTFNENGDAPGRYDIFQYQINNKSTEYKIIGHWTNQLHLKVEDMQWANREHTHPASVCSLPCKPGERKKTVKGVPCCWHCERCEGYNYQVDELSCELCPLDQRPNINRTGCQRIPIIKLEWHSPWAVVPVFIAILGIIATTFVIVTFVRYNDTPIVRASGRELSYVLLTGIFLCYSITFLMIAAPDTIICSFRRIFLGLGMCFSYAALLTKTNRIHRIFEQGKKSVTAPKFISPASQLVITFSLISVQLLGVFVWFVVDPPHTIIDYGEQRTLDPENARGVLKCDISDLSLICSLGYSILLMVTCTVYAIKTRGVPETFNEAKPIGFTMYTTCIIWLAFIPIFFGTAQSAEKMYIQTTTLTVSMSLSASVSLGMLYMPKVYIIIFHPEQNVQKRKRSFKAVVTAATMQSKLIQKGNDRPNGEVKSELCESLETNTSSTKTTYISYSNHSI
Compound `CC1C(=O)CC(c2ccco2)NC1c1ccco1` (stereo not drawn) registered a z-score of -0.0439.

In the case of `O=C(Cc1ccc(Cl)cc1)NCC(=O)N1CCCC1`, the z-score came to 0.183.

Consider `CC(C)c1ccc(C2C3=C(CC(C)(C)CC3=O)NC3=C2C(=O)c2ccccc23)cc1` (stereo not drawn), for which the z-score is -0.137.

`COc1cccc(N(CC(=O)N/N=C(\C)c2cccs2)S(C)(=O)=O)c1` came in with a z-score of -0.154.

With `Cc1ccc(S(=O)(=O)N(CC(=O)NCCC2=CCCCC2)Cc2ccccc2F)cc1`, the z-score is -0.964.

`COc1cc(/C=N/NC(N)=S)ccc1OCc1ccc(C)cc1`: the z-score turned out to be 0.0722.

`CCOc1ccc(NC(=O)CC(c2ccccc2)c2ccc(F)cc2)cc1` (stereo not drawn): the z-score is -0.263.

Compound `Oc1ccc(Nc2nc(Cl)nc(NCc3ccco3)n2)cc1` displayed a z-score of -0.585.

`Cc1cccc(-n2c(N)c(C(=O)N3CCN(C)CC3)sc2=S)c1` yielded a z-score of 0.41.

The compound `O=C(CSc1nc2ccccc2c(=O)n1-c1ccccc1)NCc1ccc2c(c1)OCO2` displayed a z-score of -0.78.

`CCOC(=O)Cn1cc([N+](=O)[O-])c(OC)n1` gave a z-score of -0.119.

Compound `CC(CC1CC(C)(C)OC1=O)C(=O)Nc1ccc([N+](=O)[O-])cc1` (stereo not drawn) registered a z-score of -0.147.

Turning to `O=C(N/C(=C/c1ccco1)C(=O)N1CCCCC1)c1cccs1`, the z-score was -0.162.

Compound `CCCCCNCc1cccc(Br)c1` yielded a z-score of -0.393.

Compound `CCCCNc1nc2ccccc2n1CC(=O)N1CCc2ccccc2C1` displayed a z-score of -0.119.

Compound `C=CCNC(=O)CCCC(=O)NCC=C` yielded a z-score of -0.125.

`CCC(=O)N(Cc1ccco1)c1nc(C(=O)Nc2ccc(Cl)cc2)c(C)s1` displayed a z-score of 0.394.

In turn, `CCCCCc1nnc(NC(=O)C2CCCO2)s1` (stereo not drawn) gave a z-score of -0.163.

Regarding `O=C1CN(C(=O)CSc2nnc3ccccn23)c2ccccc2N1`, the z-score is 1.1.

As for `CCCCOC(=O)CSc1nnc(N)s1`, the z-score was 0.12.

Regarding `CCCCn1c(SCC(=O)Nc2nnc(C)s2)nnc1-c1ccoc1C`, the z-score was -0.33.

Turning to `Cc1cccc(CNC(=O)c2ccccc2N)c1`, the z-score was -0.133.

With `CCOc1ccc2c(c1)sc1nc(C(=O)OC)cc(=O)n12`, the z-score was found to be 0.0959.

Compound `O=C(OCc1ccccc1)C1=[N+]([O-])OC(C(=O)OCc2ccccc2)C1c1c[nH]c2ccccc12` (stereo not drawn) yielded a z-score of -0.556.

Turning to `CCOC(=O)C1=C(c2ccccc2)NC(SCC(N)=O)=C(C#N)C1c1cccnc1` (stereo not drawn), the z-score is -0.49.

`Cc1ccc(S(=O)(=O)N2CCOCC2)cc1C(=O)OCC(=O)NC1CCS(=O)(=O)C1` (stereo not drawn) yielded a z-score of -0.0825.

In the case of `O=C(Nc1ccn(Cc2ccccc2F)n1)c1ccc(COc2cccc(Br)c2)cc1`, the z-score is -0.131.

Consider `CCOC(=O)c1ccc(-n2c(C)nc3ccccc3c2=O)cc1`, for which the z-score is -0.0432.

The compound `COc1ccccc1N1CCN(C(=O)C(Sc2ccccc2)c2ccccc2)CC1` (stereo not drawn) showed a z-score of -0.381.

Compound `O=c1c2cc(Cl)ccc2[nH]c(=S)n1Cc1ccccn1` registered a z-score of 1.21.

Regarding `O=C(/C=C/c1cc([N+](=O)[O-])ccc1OC(F)F)NCc1ccc(Cl)cc1`, the z-score was -0.096.

Turning to `Cc1ccc(C)c(N2CCN(C(=O)c3ccccc3Br)CC2)c1`, the z-score was -0.62.

For `Cc1ccc(C(N)=O)cc1S(=O)(=O)Nc1cccc(C)c1C`, the z-score came out at 0.112.

Compound `Cc1ccc(C2=NNC(=O)C(c3ccc(Cl)cc3)C2)cc1` (stereo not drawn) displayed a z-score of -0.12.

`COc1cccc(-c2ccc(C#N)c(OC(=O)c3c(Cl)cccc3Cl)n2)c1` came in with a z-score of -0.076.

Turning to `Cc1cc(C)c2ccc(C(=O)O)nc2c1O`, the z-score was 0.0642.

The compound `COn1c(=O)c(=O)n(O)c2ccccc21` returned a z-score of -0.141.

`Cc1nn(Cc2ccc(F)cc2)c2sc(C(=O)Nc3ccccc3N3CCOCC3)cc12` gave a z-score of -0.168.

`Cc1ccc(NC(=O)N2CCC(C(=O)Nc3ccc(C)cc3C)CC2)cc1`: the z-score amounted to 0.557.

Take `Cn1ncc(C#N)c1/N=C/N(Cc1ccccc1)Cc1ccccc1`: the z-score is -0.916.

`O=C(NC1CCCCC1)c1ccc(Br)o1` showed a z-score of 0.245.

As to `CN(C)S(=O)(=O)c1ccc(N2CCOCC2)nc1`, the z-score was -0.141.

With `CCCCCc1nnc(NC(=O)Cc2cccs2)s1`, the z-score is active: 12.3.

As to `CCCCN(CCCC)c1cn[nH]c(=O)c1Cl`, the z-score was -2.43.

`O=C1CC(N2CCN(c3ccc(S(=O)(=O)N4CCOCC4)cc3)CC2)C(=O)N1Cc1ccccc1` (stereo not drawn) displayed a z-score of -0.165.

On to `NS(=O)(=O)c1ccc(Nc2nc(-c3ccc(O)cc3)cs2)cc1`, for which the z-score was -0.459.

The compound `Cc1nc2ccccc2n1/C(=N\S(=O)(=O)c1ccccc1)c1ccccc1` registered a z-score of -0.00784.

Take `CCOC(=O)C1(c2ccccc2)NC(c2ccccc2C)C2C(=O)N(c3ccc4c(c3)OCO4)C(=O)C21` (stereo not drawn): the z-score was -0.234.

On to `COc1cc(C(=O)NC2(C(F)(F)F)NC(=O)N(CCCc3ccccc3)C2=O)cc(OC)c1OC` (stereo not drawn), for which the z-score was -0.372.

Compound `Cc1ccc(-n2nnc3c(=O)n(CC(=O)OCc4ccccc4)cnc32)cc1` registered a z-score of -0.146.

In turn, `CCOC(=O)C1CCN(C(c2cc3c(C)ccc(C)c3[nH]c2=O)c2nnnn2C2CCCCC2)CC1` (stereo not drawn) came in with a z-score of -0.505.

In turn, `COC(=O)[C@@H](NC(=O)NCc1ccccc1Cl)C(C)C` showed a z-score of 0.128.

Compound `Brc1ccccc1-c1nnc(SCc2nc3ccccc3s2)o1` yielded a z-score of -0.488.

With `NCc1cccc(-n2cccn2)c1`, the z-score was -0.158.

With `COc1c(C)cccc1C(=O)Nc1cc(-c2nn3c(C)nnc3s2)ccc1C`, the z-score is -1.6.

For `O=C(Nc1ccc(N2CCN(C(=O)c3ccc(Cl)cc3)CC2)cc1)c1cccnc1`, the z-score is -0.409.

`O=C(NC(=S)Nc1ccccc1N1CCCCC1)c1ccc(-c2cccc([N+](=O)[O-])c2)o1` showed a z-score of 0.681.

On to `CCCc1[nH]nc2c1C(c1cccc(OC(=O)c3ccco3)c1)C(C#N)=C(N)O2` (stereo not drawn), for which the z-score is -0.145.

Turning to `OC1CCN(c2c3c(nc4cc(-c5ccc(Cl)cc5)nn24)CCC3)CC1`, the z-score is -0.738.

The compound `CC(=O)N1N=C(c2ccccc2)OC1(C)CC(=O)Nc1ccccc1` (stereo not drawn) had a z-score of -0.0519.

`O=C(NCc1ccccc1)c1ccc(CS(=O)(=O)c2ccccc2)o1` showed a z-score of -0.0853.

`O=C(O)CCCNS(=O)(=O)c1ccc2c(c1)OCCCO2` displayed a z-score of -0.11.

In turn, `CCn1cc(C(=O)NC2CCCCC2)c(=O)c2ccc(C)nc21` registered a z-score of -0.484.

`COc1ccc(-c2nc3c(c(=O)c4ccccc4n3C)c(=O)n2Cc2ccccc2)cc1` registered a z-score of -0.433.

`Cc1cccc2cc(CN(Cc3nnnn3C3CCCC3)C3CCCCC3)c(=O)[nH]c12` yielded a z-score of -0.825.

`N#CCCn1c(SCC(=O)c2c[nH]c3ccccc23)nc2ccccc21` came in with a z-score of -0.698.

The compound `Cc1nnc(C)n1/N=C/c1ccc(-c2ccccc2)cc1` registered a z-score of -0.447.

In turn, `OCCN1CCN(Cc2cc(Cl)c3cccnc3c2O)CC1` came in with a z-score of 0.225.

The compound `Cc1cc(C(=O)c2ccccc2)c(NC(=O)CN2CCOCC2)s1` came in with a z-score of -0.12.

Turning to `CC(=O)N(C)c1ccc(NC(=O)c2ccco2)cc1`, the z-score came to 0.411.

`CC1(C)CC(=O)C2=C(C1)N(c1ccccc1)C(=O)C2(O)C(F)(F)F` (stereo not drawn): the z-score is -0.202.

Consider `Cc1ccc(-c2cc(C(F)F)nc(NCC3CCCO3)n2)cc1` (stereo not drawn), for which the z-score was -0.621.

The compound `CCn1ccc(C(=O)NC2C(=O)N3C(C(=O)O)=C(C)CSC23)n1` (stereo not drawn) came in with a z-score of 0.567.

`Cc1cc(OCc2cc3c(cc2Cl)OCO3)c2c(C)cc(=O)oc2c1` displayed a z-score of -0.0238.

For the compound `COc1ccc(CCN2CN(S(=O)(=O)c3ccccc3)c3nc4ccccc4nc32)cc1`, the z-score is -0.221.

Compound `CCc1ccc(CN/C=C/C(=O)c2ccc(Br)cc2)cc1` yielded a z-score of -0.162.

Compound `O=C(O)c1cccc(Cn2cccn2)c1` registered a z-score of -0.187.

`Cc1ccc(-n2nnnc2SCc2nnc(-c3ccccc3Br)o2)cc1` gave a z-score of -0.671.

Take `Fc1ccccc1NC(=S)N1CCCCC1`: the z-score is -0.215.

Compound `COc1ccc(C)cc1S(=O)(=O)N1c2ccccc2CC1C` (stereo not drawn) gave a z-score of -0.386.

In turn, `O=C(NNS(=O)(=O)c1ccc(Cl)cc1)C1CCN(Cc2ccccc2)CC1` displayed a z-score of -1.27.

For `CCc1nc2c(cnn2-c2ccc(Cl)cc2)c(=O)n1-c1ccc(OC)cc1`, the z-score is -0.382.

In the case of `CCOCCCNC(=O)c1ccc2c(c1)N(Cc1ccccc1)C(=O)CS2=O` (stereo not drawn), the z-score was -0.265.

Compound `CC12CCC(c3nnc(SCC(=O)Nc4cccc5ccccc45)nc31)C2(C)C` (stereo not drawn) showed a z-score of -0.149.

`CCSc1nnc(NC(=O)c2cc(C)nc3ccccc23)s1` gave a z-score of 0.31.

As to `Cc1cccc(-c2c3c(=O)n(C)c(=O)n(C)c3c3cccnn23)c1`, the z-score is -0.457.

As for `Cc1ccc(-c2cc(C(=O)Nc3cccnc3)c3ccccc3n2)o1`, the z-score was -0.197.

Take `Cc1ccc(CN2CCN(/N=C/c3cc(Br)cc(Br)c3O)CC2)c(C)c1`: the z-score was 0.641.

`CC(NC(=O)C1(C)CC1(Br)Br)C(C)(C)C` (stereo not drawn): the z-score was -0.211.

The compound `O=C(CCNC(=O)c1ccccc1Cl)Nc1ccc(Cl)c(C(F)(F)F)c1` had a z-score of -0.134.

Take `CCOC(=O)N1CCN(C(=O)CNC(=O)Cc2ccc(Cl)cc2)CC1`: the z-score is -0.245.

On to `CCCN(CC1CC1)c1nc(N)c(C#N)c(CC#N)c1C#N`, for which the z-score was -0.607.

In turn, `CCOC(=O)CC1NC(=O)c2ccccc21` (stereo not drawn) displayed a z-score of 0.524.

Compound `CCOc1ccccc1N1CCN(C(=O)c2ccc3[nH]c4c(c3c2)CCCC4)CC1` gave a z-score of -0.284.

With `COc1ccc(S(=O)(=O)Cc2ccc(C(=O)NCCCN3CCc4ccccc4C3)o2)cc1`, the z-score stood at 0.188.

As for `O=C(CSc1nnc(-c2ccccc2)c(-c2ccccc2)n1)NCc1ccco1`, the z-score is -1.95.

With `c1ccc(Oc2cccc(OCCCCN3CCCC3)c2)cc1`, the z-score was -0.416.

In turn, `O=c1cc(O)c2sc3nc(-c4ccccc4)cc(C(F)(F)F)c3c2[nH]1` gave a z-score of -1.89.

Compound `COc1ccc(OC)c(NC(=O)c2cnn(-c3ccccc3Cl)c2NC(=O)c2ccco2)c1` had a z-score of -0.296.

For `CCOC(=O)c1ccc(N/C=C/C(=O)c2ccc(OC)cc2)cc1`, the z-score was -0.762.

`CC(=O)c1cccc(S(=O)(=O)NC2CC2)c1` returned a z-score of -0.145.

In turn, `CCCC(CCC)n1[nH]c(=O)c2c(C)cc(C)nc21` showed a z-score of 0.0117.

`CC(=O)NC(CC(=O)NC1CCCCC1)c1ccccc1` (stereo not drawn) yielded a z-score of -0.125.

As to `c1ccc(-c2nc(-c3ccccn3)no2)cc1`, the z-score was -1.16.

As for `COC(=O)c1ccccc1OCCOc1ccccc1C(=O)OC`, the z-score was -0.901.

With `Cc1ccc(OC(=O)c2cc3ccccc3o2)cc1`, the z-score is 1.63.

Regarding `C=CCn1c(SCC(=O)/C(C#N)=C(\C)N)nc2sc(CC)cc2c1=O`, the z-score was -0.441.

For the compound `O=C(COc1ccc2ccccc2c1Br)Nn1cnnc1`, the z-score is -0.0301.

`CCCCOc1ccc(CSC2=NCCN2)cc1[N+](=O)[O-]` yielded a z-score of 0.44.

For `COc1ccc(OC)c(NC(=O)Cc2coc3ccc(C)cc23)c1`, the z-score is -0.0955.

Consider `O=C(Cn1c(=O)n(Cc2ccco2)c(=O)c2cc(Cl)ccc21)NCC1CCCO1` (stereo not drawn), for which the z-score came out at 0.0105.

For `O=C(NC1CCCC1)C(c1ccncc1)N(Cc1ccccc1)C(=O)Cc1cccs1` (stereo not drawn), the z-score is -0.175.

With `CCC(=O)n1nc(-c2ccc(Cl)cc2)nc1NCc1ccccc1`, the z-score was found to be 0.237.
